Out of some 150,000 compounds screened, about 540 (0.36%) showed an effect of 50% or more. The list shows a part of the results.

This assay relates to Plasmodium falciparum. The assay is described as follows: Primary screen in NF54 nanoGlo assay, in single point, at 2uM, 72h; a lower Z score goes with more inhibition. It is filed as functional, Erythrocyte. As to conditions: timepoint 72 hour.
For the compound `CCOCc1nc(C)cc(N2CC(O)(c3cccc4ccccc34)C2)n1`, the “% Inhibition” value was -1% and the Z score stood at 0.2.

`Cc1ccccc1NC(=O)c1ccccc1OCc1ccc(S(=O)(=O)N2CCCC2)o1`: the “% Inhibition” value came to 0% and the Z score is listed as 0.

In the case of `CCOc1ccnc(N2CCCN(c3ccncc3Cl)CC2)n1`, the “% Inhibition” value was -14% and the Z score was 2.25.

Turning to `CCN(CC)c1ccc(C(=O)Nn2cc(C(=O)NCc3ccc(F)cc3)c3ccccc3c2=O)cc1`, the “% Inhibition” value was 6% and the Z score is recorded as -0.91.

With `CC1NC(=O)CCC1NC(=O)N1CC2CCC1C2` (stereo not drawn), the “% Inhibition” value is given as -8% and the Z score was 0.98.

Consider `CNC(=O)[C@@H]1CN(Cc2ccc(C)o2)CCO1`, for which the “% Inhibition” value stood at 2% and the Z score is given as -0.4.

In the case of `CCc1noc(-c2c(C)[nH]c(C)c2S(=O)(=O)NCc2cccc(C)c2)n1`, the “% Inhibition” value is -3% and the Z score is 0.66.

Turning to `O=C(O)c1ccc2c(c1)CN(C(=O)CCC1CCC1)C2`, the “% Inhibition” value was 8% and the Z score is listed as -1.02.

As for `CCCC1(Cn2ccnc2-c2nccn2C)CCC1`, the “% Inhibition” value is recorded as -8% and the Z score is 1.36.

In the case of `CN(Cc1cnc(C(C)(C)C)s1)Cc1nnc2n1CCOCC2`, the “% Inhibition” value is 4% and the Z score is listed as -0.88.

Take `COc1cccc([C@@H]2CC(=O)Nc3ccc4nn(-c5ccccc5)nc4c32)c1`: the “% Inhibition” value is -6% and the Z score worked out at 0.77.

As to `CCN(C)C1(CNC(=O)c2ccc(-c3cnccn3)cc2)CCCC1`, the “% Inhibition” value was -14% and the Z score worked out at 2.04.

`O=C(O)c1cccc(C(=O)N(CC2CCC2)CC(F)(F)F)c1`: the “% Inhibition” value is on record as 12% and the Z score is given as -1.7.

As for `COc1ccc(Cl)cc1N1C(=O)[C@@H]2COCCN2C1=O`, the “% Inhibition” value is on record as -10% and the Z score was 0.92.

Turning to `Cc1ccc(C)c(N2CCN(S(=O)(=O)c3c(C(=O)N4CCC(C)CC4)c(C)n(C)c3C)CC2)c1`, the “% Inhibition” value is -10% and the Z score worked out at 1.85.

`Cc1ccc(C)c(Cn2c(=O)n(Cc3ccco3)c(=O)c3ccccc32)c1`: the “% Inhibition” value was -10% and the Z score was 1.79.

On to `COc1cc(CC2CN(C(=O)c3cc(C)nc(C)c3)C2)cc(OC)c1`, for which the “% Inhibition” value worked out at 5% and the Z score is listed as -1.09.

`Cc1cc(C(=O)N2CCN(c3ccccc3)CC2)on1`: the “% Inhibition” value is recorded as -8% and the Z score came out at 1.17.

`COc1ccc(-c2nc(N(C)C)ncc2S(C)(=O)=O)cc1`: the “% Inhibition” value is -3% and the Z score is given as 0.42.

Consider `CC(C)CCNc1c(C#N)c2c(c3nncn13)CN(C(C)C)CC2`, for which the “% Inhibition” value was -3% and the Z score is 0.63.

In the case of `N#Cc1cccc(OCCN2CCOc3ccccc32)c1`, the “% Inhibition” value is reported as -11% and the Z score worked out at 1.04.

For the compound `CC[C@@H](C(=O)O)N(C)CCc1ccccc1OC`, the “% Inhibition” value was -21% and the Z score stood at 2.09.

On to `C[C@@H](C(=O)N1CCc2ccccc2C1)N(C)Cc1ncnn1C`, for which the “% Inhibition” value is reported as -3% and the Z score was determined as 0.36.

Turning to `NC(=O)N1CCC(C(=O)N2CCN(S(=O)(=O)c3cccc(Br)c3)CC2)CC1`, the “% Inhibition” value is -10% and the Z score turned out to be 0.81.

For the compound `COc1ccc(N2CCN(C(=O)c3cccc4nn[nH]c34)CC2)cc1`, the “% Inhibition” value was -7% and the Z score turned out to be 0.73.

`Cc1cccc(-c2nc(N)nc3c2CN(C(=O)CCC(=O)N(C)C)[C@H]3C)c1`: the “% Inhibition” value was -1% and the Z score is on record as 0.14.

Take `COc1ccc(Cl)cc1C(=O)N1CCC2(CC1)CC2(F)F`: the “% Inhibition” value is given as 21% and the Z score was -2.64.

For `CN(C(=O)CC1=CCCCC1)c1nc2ccccc2o1`, the “% Inhibition” value was -13% and the Z score is 2.28.

Take `CC1CCN(c2cc(-c3nccn3CC(=O)NCc3ccccc3Cl)ccn2)CC1`: the “% Inhibition” value was -12% and the Z score worked out at 1.21.

For the compound `Cc1cc(C)n(C[C@H](C)Nc2ncncc2C(=O)O)n1`, the “% Inhibition” value is -6% and the Z score came to 1.14.

For the compound `O=C(c1cn(C[C@@H]2CC(F)(F)CN2CC2CCCCC2)nn1)N1CCOCC1`, the “% Inhibition” value is on record as 34% and the Z score is reported as -3.79.

Regarding `Cc1ccc(CNc2ncccc2F)nc1`, the “% Inhibition” value is -4% and the Z score was 0.43.

Take `Cn1cnc2cc(C(=O)N3CCCC[C@@H]3CCC(=O)O)ccc21`: the “% Inhibition” value is reported as -4% and the Z score was found to be 0.37.

For the compound `Fc1cc(-c2ccncc2)c2ncccc2c1`, the “% Inhibition” value is -1% and the Z score is listed as 0.16.

Consider `Cn1ccc2c(-c3ccc4cc[nH]c(=O)c4c3)ccnc21`, for which the “% Inhibition” value is given as -9% and the Z score was 0.88.

As for `O=C(Cn1cccc1-c1nnc(C2CCC2)o1)Nc1ccc(F)c(Cl)c1`, the “% Inhibition” value is -4% and the Z score is listed as 0.76.

Turning to `CCN(CC)S(=O)(=O)c1ccc(NC(=O)CN(C)C2CCCC2)cc1`, the “% Inhibition” value was determined as 0% and the Z score is recorded as -0.01.

`O=C(N[C@H]1C[C@@H](c2cc(=O)[nH]c(C3CC3)n2)C1)c1ccc(CO)cc1`: the “% Inhibition” value is -4% and the Z score was determined as 0.76.

As to `O=C(c1ccccc1O)N1CCC(n2ncc3c2CNC3)CC1`, the “% Inhibition” value was -6% and the Z score turned out to be 0.92.

As for `c1ccc2c(c1)nc(C1CC1)n2Cc1nc(C2CC2)no1`, the “% Inhibition” value is on record as 10% and the Z score is on record as -1.48.

In the case of `O=C(Cc1ccccc1Cl)Nc1ccc(-c2nnc3n2CCCC3)cc1`, the “% Inhibition” value is on record as -21% and the Z score came to 1.94.

For the compound `Cc1cc(OC2CN(C(=O)c3ccccc3F)C2)cc(=O)n1C1CC1`, the “% Inhibition” value is given as -25% and the Z score was determined as 2.91.

In the case of `Cc1cc2c(cc1Br)CN(C(=O)c1ncn(C)n1)CC2`, the “% Inhibition” value was -4% and the Z score was 0.42.

As to `COc1ccc2cc1Oc1cccc(c1)CO[C@H]1CCN(C(=O)c3ccc(=O)n(C)c3)C[C@H]1NC(=O)CC2`, the “% Inhibition” value is given as -7% and the Z score amounted to 1.34.

Regarding `C[C@@H]1CN(CC(=O)N(C)Cc2csc(-c3ccccc3)n2)C[C@H](C)O1`, the “% Inhibition” value was -15% and the Z score stood at 1.94.

Take `COCc1ccc(NC(=O)C[C@@H]2C(=O)Nc3ccccc32)cc1`: the “% Inhibition” value is reported as -14% and the Z score amounted to 1.93.

Turning to `CCCNC(=O)[C@H](C)NC(=O)Nc1cccc(F)c1`, the “% Inhibition” value is -1% and the Z score was 0.16.

`O=C(Nc1ccc2c(c1)N(C(=O)c1ccccc1)CCC2)OCc1ccccc1`: the “% Inhibition” value turned out to be 11% and the Z score was -1.36.

With `CCOc1ccc(S(=O)(=O)N(C)C)cc1NC(=O)N1CCOC[C@@H]1CCO`, the “% Inhibition” value was -2% and the Z score was determined as 0.27.

For `Cc1cc(OCC(=O)Nc2ccc(F)cc2)nc(N2CCC[C@H](C)C2)n1`, the “% Inhibition” value is -13% and the Z score is 2.14.

In the case of `CC(C)=CCN1CCC[C@H](CNC(=O)c2ccncc2)C1`, the “% Inhibition” value was -2% and the Z score turned out to be 0.42.

As for `CCCN(C(=O)Cc1cccc(C)c1)[C@H]1CCNC1`, the “% Inhibition” value is -11% and the Z score was 1.07.

On to `Cc1nc(O)c2c(n1)CN([C@@H](C)c1nc3ccccc3n1C(F)F)C2`, for which the “% Inhibition” value is reported as -7% and the Z score worked out at 0.98.

Turning to `Cc1cc(-c2nc(COCC(F)(F)C(F)F)no2)n[nH]1`, the “% Inhibition” value is recorded as -4% and the Z score was 0.63.

What is called % Inhibition is the relative decrease from the control value, in per cent.

The values are drawn from ChEMBL document CHEMBL4888484, “Replenishing the malaria drug discovery pipeline: Screening and hit evaluation of the MMV Hit Generation Library 1 (HGL1) against asexual blood stage Plasmodium falciparum ,using a nano luciferase reporter read-out” (2022).
